This note sets out measurements from US20160251421A1 (AstraZeneca / MedImmune, published 2016).

For this test, the target named is T1, biotinylated recombinant human Angiopoietin-2 (R&D Systems, Inc. Cat. No. BT623) (human, UniProt O15123 19-496, limits assumed, biotinylated (sites not given)).
T1 construct: Bought reagent; also called Ang-2; Ang2
T1 sequence (looked up): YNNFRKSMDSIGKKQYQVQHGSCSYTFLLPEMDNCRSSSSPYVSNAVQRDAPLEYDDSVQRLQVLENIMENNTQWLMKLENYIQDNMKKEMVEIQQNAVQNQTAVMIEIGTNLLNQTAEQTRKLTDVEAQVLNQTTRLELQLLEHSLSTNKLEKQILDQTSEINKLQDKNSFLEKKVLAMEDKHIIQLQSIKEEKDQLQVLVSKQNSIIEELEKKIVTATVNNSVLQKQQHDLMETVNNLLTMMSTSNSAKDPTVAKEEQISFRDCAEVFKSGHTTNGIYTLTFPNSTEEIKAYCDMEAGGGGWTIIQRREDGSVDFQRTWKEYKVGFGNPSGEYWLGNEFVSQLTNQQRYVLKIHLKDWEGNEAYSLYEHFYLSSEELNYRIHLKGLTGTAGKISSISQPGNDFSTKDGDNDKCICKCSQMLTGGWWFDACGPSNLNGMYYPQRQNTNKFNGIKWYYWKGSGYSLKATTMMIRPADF
Description: competitive binding ELISA: biotinylated Angiopoietin-2 on plate-coated Tie-2/Fc, purified mAb. Background: In an ELISA, binding on a coated surface is turned into a signal by an enzyme label.

B1: anti-Ang-2 monoclonal antibody 5.78.3 (antibody, V domains shown)
VH: not shown
VL: DIVMTQSPDSLAVSLGERATINCKSSQSVLYSSNNQNFLAWYQQKPGQPPKLLIYWASTRESGVPDRFSGSGSGTDFTLTISSLQAEDVAVYYCHQYYSTPITFGQGTRLEIKR
notes: Fully human IgG kappa from XenoMouse hybridoma (strains XMG2 and XMG4); IgG purified from hybridoma supernatant; also called mAb 5.78.3
With B1, the “Efficacy (ratio of bound Angiopoietin-2 with mAb (30 µg/ml) versus without mAb)” value was 0.262 ratio.
